Assay results reported in article PMC12820563.
The list shows a part of the results. The list includes weakly bound sequences.

What follows are sequences tested against T1, MBP-FoxP3dN (UniProt Q99JB6) (assay: PD-seq (MBP pull-down with sequencing)). Conditions: 20 mM Tris-HCl pH 7.5, 100 mM NaCl, 1.5 mM MgCl2, 0.4 uM protein, 0.1 uM dsDNA library, 30 min, room temperature, amylose pull-down; high values mean tight binding; double strand, one strand shown.
T1 sequence: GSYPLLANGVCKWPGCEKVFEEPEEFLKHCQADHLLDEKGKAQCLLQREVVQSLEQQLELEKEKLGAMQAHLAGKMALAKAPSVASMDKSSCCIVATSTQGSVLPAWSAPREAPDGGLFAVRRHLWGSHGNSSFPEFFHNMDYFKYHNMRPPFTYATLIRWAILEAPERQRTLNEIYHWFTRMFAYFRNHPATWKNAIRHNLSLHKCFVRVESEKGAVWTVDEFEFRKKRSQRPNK

Sequence	binding signal (RPM ratio (pull-down/input))
GATGATTGTTCTCCCAGCTGATGAATTCAAAGGTTCGAGTAAACAAATTTTCCTAATCTTTCTGTTCAAGCGCCATCTAC	0.196
GATGATTGTTCTCCCAGCTGATGAATTTAATCATTCGAGTAAACAAATTTTCCTAATCTTTCTGTTCAAGCGCCATCTAC	0.692
GATGATTGTTCTCCCAGCTGATGAATTGCGGCGATCGAGTAAACAAATTTTCCTAATCTTTCTGTTCAAGCGCCATCTAC	0.888
GATGATTGTTCTCCCAGCTGATGAATTAGATATATCGAGTAAACAAATTTTCCTAATCTTTCTGTTCAAGCGCCATCTAC	0.752
GATGATTGTTCTCCCAGCTGATGAATTGGGGTCCTCGAGTAAACAAATTTTCCTAATCTTTCTGTTCAAGCGCCATCTAC	0.484
GATGATTGTTCTCCCAGCTGATGAATTCTCTCGGTCGAGTAAACAAATTTTCCTAATCTTTCTGTTCAAGCGCCATCTAC	0.2
GATGATTGTTCTCCCAGCTGATGAATTCACCTTATCGAGTAAACAAATTTTCCTAATCTTTCTGTTCAAGCGCCATCTAC	0.363
GATGATTGTTCTCCCAGCTGATGAATTTTGCTCCTCGAGTAAACAAATTTTCCTAATCTTTCTGTTCAAGCGCCATCTAC	0.935
GATGATTGTTCTCCCAGCTGATGAATTACATAGCTCGAGTAAACAAATTTTCCTAATCTTTCTGTTCAAGCGCCATCTAC	0.46
GATGATTGTTCTCCCAGCTGATGAATTCTCTGCTTCGAGTAAACAAATTTTCCTAATCTTTCTGTTCAAGCGCCATCTAC	0.262
GATGATTGTTCTCCCAGCTGATGAATTTCGCGTTTCGAGTAAACAAATTTTCCTAATCTTTCTGTTCAAGCGCCATCTAC	3.42
GATGATTGTTCTCCCAGCTGATGAATTCAAAGTATCGAGTAAACAAATTTTCCTAATCTTTCTGTTCAAGCGCCATCTAC	0.392
GATGATTGTTCTCCCAGCTGATGAATTCCGTACGTCGAGTAAACAAATTTTCCTAATCTTTCTGTTCAAGCGCCATCTAC	0.509
GATGATTGTTCTCCCAGCTGATGAATTTTACTTGTCGAGTAAACAAATTTTCCTAATCTTTCTGTTCAAGCGCCATCTAC	0.939
GATGATTGTTCTCCCAGCTGATGAATTGGAAAATTCGAGTAAACAAATTTTCCTAATCTTTCTGTTCAAGCGCCATCTAC	0.195
GATGATTGTTCTCCCAGCTGATGAATTGGGATTGTCGAGTAAACAAATTTTCCTAATCTTTCTGTTCAAGCGCCATCTAC	0.945

Sequence	binding signal (RPM ratio (pull-down/input))
GATGATTGTTCTCCCAGCTGATGAATTCCGACAGTCGAGTAAACAAATTTTCCTAATCTTTCTGTTCAAGCGCCATCTAC	0.417
GATGATTGTTCTCCCAGCTGATGAATTGGGCGGCTCGAGTAAACAAATTTTCCTAATCTTTCTGTTCAAGCGCCATCTAC	0.525
GATGATTGTTCTCCCAGCTGATGAATTTCTTCTCTCGAGTAAACAAATTTTCCTAATCTTTCTGTTCAAGCGCCATCTAC	0.215
GATGATTGTTCTCCCAGCTGATGAATTCTGTCATTCGAGTAAACAAATTTTCCTAATCTTTCTGTTCAAGCGCCATCTAC	4.31
GATGATTGTTCTCCCAGCTGATGAATTGCGGGGTTCGAGTAAACAAATTTTCCTAATCTTTCTGTTCAAGCGCCATCTAC	0.842
GATGATTGTTCTCCCAGCTGATGAATTTAGGGCGTCGAGTAAACAAATTTTCCTAATCTTTCTGTTCAAGCGCCATCTAC	0.604
GATGATTGTTCTCCCAGCTGATGAATTAGTATATTCGAGTAAACAAATTTTCCTAATCTTTCTGTTCAAGCGCCATCTAC	3.75
GATGATTGTTCTCCCAGCTGATGAATTATTATATTCGAGTAAACAAATTTTCCTAATCTTTCTGTTCAAGCGCCATCTAC	0.647
GATGATTGTTCTCCCAGCTGATGAATTTATAAATTCGAGTAAACAAATTTTCCTAATCTTTCTGTTCAAGCGCCATCTAC	0.429
GATGATTGTTCTCCCAGCTGATGAATTGAAACAATCGAGTAAACAAATTTTCCTAATCTTTCTGTTCAAGCGCCATCTAC	1.2
GATGATTGTTCTCCCAGCTGATGAATTCAGTGATTCGAGTAAACAAATTTTCCTAATCTTTCTGTTCAAGCGCCATCTAC	1.26
GATGATTGTTCTCCCAGCTGATGAATTTACCTGGTCGAGTAAACAAATTTTCCTAATCTTTCTGTTCAAGCGCCATCTAC	0.329
GATGATTGTTCTCCCAGCTGATGAATTCTCAACATCGAGTAAACAAATTTTCCTAATCTTTCTGTTCAAGCGCCATCTAC	0.466
GATGATTGTTCTCCCAGCTGATGAATTGTCCGAGTCGAGTAAACAAATTTTCCTAATCTTTCTGTTCAAGCGCCATCTAC	0.223
GATGATTGTTCTCCCAGCTGATGAATTCGCTGTATCGAGTAAACAAATTTTCCTAATCTTTCTGTTCAAGCGCCATCTAC	1.1
